According to publication PMC4336329 (PLoS ONE, 2015):
Among all 310,000 compounds or so, about 2,200 (0.71%) showed an effect of 50% or more. Effects have a minus sign here. The list shows a part of the results.

biological target: human ether-à-go-go-related gene (hERG) potassium channel (human, UniProt Q12809); test: primary screen, population patch clamp on CHO cells stably expressing hERG
Sequence (Q12809 whole entry, looked up): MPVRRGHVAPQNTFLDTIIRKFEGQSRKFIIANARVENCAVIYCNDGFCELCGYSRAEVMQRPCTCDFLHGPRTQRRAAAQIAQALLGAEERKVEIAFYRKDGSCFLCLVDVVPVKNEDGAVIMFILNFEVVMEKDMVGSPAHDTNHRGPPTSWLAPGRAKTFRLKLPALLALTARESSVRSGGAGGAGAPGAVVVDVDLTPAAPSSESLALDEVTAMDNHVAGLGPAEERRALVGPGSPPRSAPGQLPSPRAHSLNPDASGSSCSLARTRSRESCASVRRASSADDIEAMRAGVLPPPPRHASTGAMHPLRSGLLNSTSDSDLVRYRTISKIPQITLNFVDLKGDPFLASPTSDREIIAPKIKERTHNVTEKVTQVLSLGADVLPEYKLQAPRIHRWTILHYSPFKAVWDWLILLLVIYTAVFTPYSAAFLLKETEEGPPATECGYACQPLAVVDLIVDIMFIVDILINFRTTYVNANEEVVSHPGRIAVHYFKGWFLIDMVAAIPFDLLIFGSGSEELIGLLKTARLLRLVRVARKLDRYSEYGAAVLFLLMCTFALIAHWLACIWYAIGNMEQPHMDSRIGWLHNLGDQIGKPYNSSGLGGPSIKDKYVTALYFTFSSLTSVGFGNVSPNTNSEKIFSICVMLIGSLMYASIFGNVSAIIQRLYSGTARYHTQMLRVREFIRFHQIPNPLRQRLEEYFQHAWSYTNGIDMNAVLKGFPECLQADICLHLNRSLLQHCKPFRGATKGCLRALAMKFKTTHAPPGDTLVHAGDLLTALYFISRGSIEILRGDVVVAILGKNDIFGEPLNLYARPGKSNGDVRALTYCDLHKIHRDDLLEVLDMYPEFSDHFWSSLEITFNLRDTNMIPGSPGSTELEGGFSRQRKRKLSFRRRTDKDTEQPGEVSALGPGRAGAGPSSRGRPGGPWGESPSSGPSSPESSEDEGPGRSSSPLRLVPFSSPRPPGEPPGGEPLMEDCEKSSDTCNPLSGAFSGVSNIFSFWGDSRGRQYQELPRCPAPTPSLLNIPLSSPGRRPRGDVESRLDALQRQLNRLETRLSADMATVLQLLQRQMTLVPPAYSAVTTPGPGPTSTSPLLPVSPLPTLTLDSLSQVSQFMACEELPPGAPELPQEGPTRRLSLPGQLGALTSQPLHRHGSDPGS

Compared with `CCc1nnc(NC(=O)C2CCCCC2)s1`, `Cc1nn(Cc2ccc(C(=O)NC3CCCCC3)o2)c(C)c1Br` is lower in “hERG current change (%, negative = inhibition) at 1uM” value: 4.85% for the first, 4.68% for the second.

First: COCCNC(=O)c1ccc(N2CC3CC(C2)c2cccc(=O)n2C3)c(NC(=O)c2ccc(F)cc2)c1 (stereo not drawn)
Second: Cc1cccc(N2C(=O)c3ccc(C(=O)Nc4cccc(C(=O)O)c4)cc3C2=O)c1
The “hERG current change (%, negative = inhibition) at 1uM” value of the first is higher: 11.3% for the first, 7.52% for the second.

Compared with `CCC(Sc1nc2cc3c(cc2c(=O)n1Cc1ccco1)OCO3)C(=O)Nc1ccccc1OC` (stereo not drawn), `O=C(COC(=O)c1cc(-c2cccs2)nc2ccccc12)NCc1ccco1` is lower in “hERG current change (%, negative = inhibition) at 1uM” value: 0.732% for the first, -7.2% for the second.

Compared with `CC(C)[C@H](NC(=O)NC1CCN(Cc2ccccc2)CC1)C(=O)O`, `CCC(C)[C@H](NC(=O)NCc1ccc(Cl)cc1)C(=O)OC` (stereo partly drawn) is higher in “hERG current change (%, negative = inhibition) at 1uM” value: 5.52% for the first, 6.04% for the second.

Going from `O=C(CCCO)NNc1c2ccccc2nc2ccccc12` to `Cc1nn(C)cc1-c1cc(C(=O)O)c2ccccc2n1`, the “hERG current change (%, negative = inhibition) at 1uM” value rises from 2.57% to 14%.

Going from `COc1ccc(-c2nc(Cn3c(SCc4cccc(F)c4)nc4ccncc43)c(C)o2)cc1OC` to `COc1cc(NC2=Nc3cccc4cccc2c34)cc(OC)c1OC`, the “hERG current change (%, negative = inhibition) at 1uM” value rises from -6.81% to 9.31%.

First: CCc1cccc(CC)c1NC(=S)NCCc1c(C)[nH]c2ccc(C)cc12
Second: CCOc1ccc(CCNS(=O)(=O)c2cccc3nsnc23)cc1OCC
The “hERG current change (%, negative = inhibition) at 1uM” value of the first is lower: -18.7% for the first, -4.56% for the second.

Compared with `NNC(=O)CCN1CCN(C(c2ccccc2)c2ccccc2)CC1`, `CCOC(=O)N1CCC(N2CCN(c3ccccc3)CC2)CC1.Cl` is lower in “hERG current change (%, negative = inhibition) at 1uM” value: 4.04% for the first, 2.64% for the second.

First: CC(=O)Oc1c(S(=O)(=O)c2ccccc2)c(C)nn1C(C)(C)C
Second: CC(C)(C)SCCNC(=O)CSc1ccccc1
The “hERG current change (%, negative = inhibition) at 1uM” value of the first is lower: 1.43% for the first, 10.5% for the second.

Going from `COc1cccc(N2CCN(C(=O)C3CCCN(S(=O)(=O)c4cnc[nH]4)C3)CC2)c1` (stereo not drawn) to `Cc1cccc(N2CCN(C(=O)c3ccncc3)CC2)c1C`, the “hERG current change (%, negative = inhibition) at 1uM” value falls from 16.8% to -7.13%.

Compared with `COc1ccc(/C=N/NC(=O)c2ccn[nH]2)cc1Cn1cc([N+](=O)[O-])cn1`, `O=C(Nc1ccc2[nH]c(=O)[nH]c2c1)c1cccc([N+](=O)[O-])c1` is higher in “hERG current change (%, negative = inhibition) at 1uM” value: 6.72% for the first, 11.8% for the second.

First: CC(=O)Nc1ccc(S(=O)(=O)Oc2cccc(N3C(=O)C4CC=CCC4C3=O)c2)cc1 (stereo not drawn)
Second: COc1ccc(OCC(=O)Nc2ccc(N3CCN(C(=O)c4ccco4)CC3)cc2)cc1
The “hERG current change (%, negative = inhibition) at 1uM” value of the first is lower: -1.53% for the first, 18.7% for the second.

Compared with `CC(=O)Nc1ccc2nc(SCC(=O)O)sc2c1`, `CC(=O)c1sc(NC(=O)c2ccc(Br)o2)nc1C` is higher in “hERG current change (%, negative = inhibition) at 1uM” value: 4.65% for the first, 13.5% for the second.

Compared with `O=C(O)c1ccc(NCc2ccc(Br)cc2)cc1`, `Cc1cc(Nc2ccc(C(=O)O)cc2)nc(N)n1` is higher in “hERG current change (%, negative = inhibition) at 1uM” value: 8.59% for the first, 22.2% for the second.

First: Cn1c(=O)c([N+](=O)[O-])c(NC2CCS(=O)(=O)C2)c2ccccc21 (stereo not drawn)
Second: CN(CC(=O)Nc1ccccc1Br)C(=O)c1cc(S(=O)(=O)N(C)C)ccc1N1CCCC1
The “hERG current change (%, negative = inhibition) at 1uM” value of the first is higher: 9.6% for the first, 3.58% for the second.

First: Cc1nc2ccccc2n1Cc1ccc(Cl)cc1
Second: CC(=O)OCc1cc(-c2nc3ccccc3[nH]c2=O)nn1-c1ccc(Cl)cc1
The “hERG current change (%, negative = inhibition) at 1uM” value of the first is higher: 10.5% for the first, 9.65% for the second.

First: COc1cc(NC(=O)c2cc3ccccc3o2)c(OC)cc1Br
Second: COc1cc2c(cc1OC)-c1n[nH]c(=S)n1C(C)(C)C2
The “hERG current change (%, negative = inhibition) at 1uM” value of the first is lower: 3.27% for the first, 13.6% for the second.

Compared with `Cc1occc1C(=O)OCC(=O)Nc1ccc(F)cc1`, `O=C(Cc1nc(-c2cnccn2)no1)NNC(=O)Nc1ccccc1` is higher in “hERG current change (%, negative = inhibition) at 1uM” value: 1.79% for the first, 13.1% for the second.

Compared with `O=[N+]([O-])c1ccc(Oc2ccc(S(=O)(=O)N3CCOCC3)cn2)cc1`, `O=C(Nc1ccccc1N1CCCCC1)c1ccc(F)c(S(=O)(=O)N2CCOCC2)c1` is higher in “hERG current change (%, negative = inhibition) at 1uM” value: -1.03% for the first, 5.19% for the second.

Going from `COc1ccc(-c2cc(C(F)(F)F)n3nc(C(=O)NCCCn4ccnc4)cc3n2)cc1` to `Cc1ccc(-c2cc(C(F)(F)F)n3ncc(C(=O)N4CCCCC4c4cccnc4)c3n2)cc1` (stereo not drawn), the “hERG current change (%, negative = inhibition) at 1uM” value rises from 6.61% to 8.61%.

Going from `CC1CCCC(NC(=O)C2CCC(CNc3c(N4CCCCC4)c(=O)c3=O)CC2)C1C` (stereo not drawn) to `Cc1ccc(S(=O)(=O)C2(C(=O)N3CCCCCC3)CC2)cc1`, the “hERG current change (%, negative = inhibition) at 1uM” value falls from 13.1% to -11.3%.

Going from `CCN(CCC(=O)O)c1ccccc1` to `Cc1cc2nncn2c(Cc2ccccc2)n1`, the “hERG current change (%, negative = inhibition) at 1uM” value rises from 8.65% to 9.56%.

First: CC(C)Cn1c(SC(C)C(=O)Nc2ccc(N3CCOCC3)cc2)nc2ccccc21 (stereo not drawn)
Second: Cn1c(N)c(C(=O)COC(=O)c2cc(C(F)(F)F)nc3ccccc23)c(=O)n(Cc2ccccc2)c1=O
The “hERG current change (%, negative = inhibition) at 1uM” value of the first is lower: 2.87% for the first, 16.4% for the second.

Compared with `CN1CCCC(OC(=O)c2cc(Br)ccc2Cl)C1.Cl` (stereo not drawn), `CC1CCN(C(=O)COC(=O)Cc2ccc(Br)cc2)CC1` is higher in “hERG current change (%, negative = inhibition) at 1uM” value: -5.71% for the first, 4.59% for the second.

First: Cc1[nH]c2ccccc2c1C(O)c1ccncc1 (stereo not drawn)
Second: COc1ccc(CCNCC(O)COc2ccc(OC)cc2C(C)(C)C)cc1 (stereo not drawn)
The “hERG current change (%, negative = inhibition) at 1uM” value of the first is higher: 14.7% for the first, 12.6% for the second.

First: CCOC(=O)c1c(CN2CCN(C)CC2)oc2ccc(O)cc12
Second: COc1ccc(C)cc1NC(=O)C1CCCCC1C(=O)O (stereo not drawn)
The “hERG current change (%, negative = inhibition) at 1uM” value of the first is lower: -8.05% for the first, 3.5% for the second.

First: Cc1[nH]c(=O)[nH]c(=O)c1S(=O)(=O)NCCc1ccc(S(N)(=O)=O)cc1
Second: COc1ccc(OCCOC(=O)CNC(=O)c2ccc(Cl)cc2Cl)cc1
The “hERG current change (%, negative = inhibition) at 1uM” value of the first is higher: 13.8% for the first, 10.4% for the second.

Going from `C[C@]12CC[C@@H]3c4ccc(O)c(O)c4CC[C@H]3[C@@H]1CC[C@@H]2O` to `CC[C@]1(c2cccc(C)c2)C(=O)N(C(=O)OC)N1C(=O)OC`, the “hERG current change (%, negative = inhibition) at 1uM” value falls from 18.6% to 6.95%.

For `CCc1cc2c(NCCO)ncnc2s1`, the “hERG current change (%, negative = inhibition) at 1uM” value was 14.1%.
